The results in this text go back to ChEMBL document CHEMBL4888484, “Replenishing the malaria drug discovery pipeline: Screening and hit evaluation of the MMV Hit Generation Library 1 (HGL1) against asexual blood stage Plasmodium falciparum ,using a nano luciferase reporter read-out” (2022).

The whole screen tested about 150,000 compounds, of which about 540 (0.36%) showed an effect of 50% or more. The list shows a part of the results.

In this test the test system is Plasmodium falciparum. Kind of test: Primary screen in NF54 nanoGlo assay, in single point, at 2uM, 72h; a lower Z score goes with more inhibition. The conditions noted are these: timepoint 72 hour. It counts as functional, Erythrocyte.
As to `CC(=O)N1CCC(N(C)CC(=O)c2ccc(O)cc2)CC1`, the “% Inhibition” value is listed as -8% and the Z score is listed as 1.2.
The like results for `COCCN1C[C@]2(CCCN(C(=O)c3ccc(N)nc3)C2)CCC1=O` were, in that order, -1% and 0.2.
In the same order, the values of `Cc1c([C@H](C)NCc2ccccc2F)cnn1-c1cccc2ccccc12` are -13% and 1.18.
The like results for `COC[C@@H]1C[C@@H](O)CN1C(=O)NCc1coc2ccccc12` were, in that order, -2% and 0.41.
On to `Cc1cn2c(n1)CC[C@H](NS(=O)(=O)c1ccc(C)c(N(C)C)c1)C2`, for which the “% Inhibition” value is on record as -1% and the Z score turned out to be 0.15.
With `CCN(C(=O)CCN1CCCS1(=O)=O)c1cccnc1`, the “% Inhibition” value is given as -8% and the Z score was determined as 1.37.
On to `Cc1noc([C@H](C)NC(=O)C2=NN(c3ccccc3)C(=O)CN2)n1`, for which the “% Inhibition” value is recorded as -12% and the Z score was determined as 1.81.
For the compound `CCc1nnc(CN(C)[C@@H](C)C(=O)NCc2ccccc2)o1`, the “% Inhibition” value is given as -5% and the Z score is reported as 0.86.
In the same order, the values of `C=CCNC(=O)CN1C(=O)CCn2nc(-c3cn(C)c4ccccc34)cc21` are 2% and -0.42.
In the case of `CCOCCCC(=O)N1c2c(c(C)nn2C)N(C(=O)OC(C)(C)C)C[C@@H]1C`, the “% Inhibition” value is on record as -3% and the Z score amounted to 0.48.
In the same order, the values of `c1cncc(NCCNc2nc(-c3ccco3)nc3c2CCNCC3)c1` are 1% and -0.17.
Consider `CC(C)c1ccc(-c2cc3c4nn(CC(=O)N(C)c5ccc(F)cc5)c(=O)n4ccn3n2)cc1`, for which the “% Inhibition” value was -16% and the Z score was 2.2.
In the same order, the values of `Cc1ccc(NC(=O)C2[C@H]3C=C[C@@]4(O3)C(C(=O)NC3CCCC(C)C3C)N(CCC(C)C)C(=O)[C@@H]24)cc1Cl` (stereo partly drawn) are 2% and -0.31.
In the same order, the values of `CCCCCN(C)c1ccc(F)cc1CNc1nnc(-c2cnn(C)c2)o1` are -6% and 1.11.
The like results for `Cc1csc(C(NC(=O)N(C)C(C)C2CC2)C2CC2)n1` (stereo not drawn) were, in that order, -1% and 0.06.
As for `O=C(NC1CCOCC1)N1CCC(F)(F)CC1`, the “% Inhibition” value is recorded as -23% and the Z score is 2.98.
The like results for `O=C1NC(=O)C2(CCN(C(=O)c3n[nH]c(=O)c4ccccc34)CC2)N1` were, in that order, -1% and 0.18.
The like results for `CC1CCCN(S(=O)(=O)NCC(c2ccco2)N2CCCC2)C1` (stereo not drawn) were, in that order, -10% and 1.33.
The like results for `CCn1ncc2[nH]c(-c3cc(CC(C)C)[nH]n3)nc21` were, in that order, -6% and 0.86.
Consider `CCc1c(C)nc(C)nc1NC[C@H]1CN(C(C)=O)CCO1`, for which the “% Inhibition” value is on record as -5% and the Z score is 0.91.
The like results for `CCOc1cncc(CN[C@H]2CCCN(c3ccnn3C)C2)c1` were, in that order, 10% and -1.16.
In the case of `COCC1(CNCc2ccnn2-c2ccccc2)CCC1`, the “% Inhibition” value worked out at 9% and the Z score was -1.38.
In the same order, the values of `Cc1cccc(S(=O)(=O)c2csc3c2NC(=O)C[C@@H]3c2cccc(Cl)c2)c1` are 0% and 0.
The like results for `Cc1nsc(N2CCC(NCc3ccccc3)CC2)n1` were, in that order, 3% and -0.37.
Take `Cc1cc(C)c2c3ccccc3n(CCNC(=O)c3ccncc3)c2n1`: the “% Inhibition” value came to 4% and the Z score is -0.52.
In the same order, the values of `Cc1cccc(NC(=O)Cn2c(C)cc3nc4n(c(=O)c32)CCC4)c1C` are -12% and 1.37.
In the same order, the values of `Cc1ccc(C2OCCCC2NC(=O)CC(C)c2c(C)noc2C)cc1` (stereo not drawn) are 3% and -0.37.
The like results for `OC(c1nc2ccccc2[nH]1)C(O)C(O)C(O)c1nc2ccccc2[nH]1` (stereo not drawn) were, in that order, -15% and 2.38.
For the compound `CCN(CCNC(=O)C1CCN(S(=O)(=O)N(C)C)CC1)c1ccc(C)cc1`, the “% Inhibition” value is -25% and the Z score came out at 2.18.
Turning to `C#Cc1cccc(N(C(=O)CCNC(=O)C(C)(C)C)C(C)C)c1`, the “% Inhibition” value is -11% and the Z score is on record as 0.94.
The like results for `O=C1CN(Cc2ccccc2)C2(CCN(Cc3ccncc3)CC2)N1` were, in that order, -3% and 0.37.
In the same order, the values of `COc1ccc(OC)c(NC(=O)[C@@H]2CCCN2S(=O)(=O)c2cc3c(cc2C)NC(=O)CO3)c1` are -8% and 1.64.
The like results for `O=C(NCc1cccnc1)/C(=C\c1cccc(Oc2ccccc2)c1)S(=O)(=O)c1ccccc1` were, in that order, -20% and 1.75.
Take `Cc1cc(C(=O)N2C(C)CC3CCCCC32)nn1C` (stereo not drawn): the “% Inhibition” value is 1% and the Z score is listed as -0.21.
As for `C=CCCC(=O)NC[C@@H](CO)Cc1ccc(F)c(Br)c1`, the “% Inhibition” value is on record as 4% and the Z score was -0.72.
The like results for `CS(=O)(=O)N[C@H]1CCCN(C(=O)N2CCc3ccccc32)C1` were, in that order, -12% and 1.56.
The like results for `C[C@H]1CN(C)CCN1C(=O)c1occc1-c1ccccc1` were, in that order, -4% and 0.46.
In the same order, the values of `CCCn1cc(CCNC(C)=O)c2cccnc21` are -20% and 2.32.
Take `Cc1cc(OCCN2C(=O)[C@@H](C)CNc3ccccc32)ccc1Cl`: the “% Inhibition” value is listed as -13% and the Z score stood at 1.47.
The like results for `CCN(CCC1CC1)C(=O)c1oc(C(F)F)cc1C` were, in that order, 1% and -0.12.
In the same order, the values of `CN1CCC(n2nc(-c3ccccc3)nc2Cn2ccc(=O)[nH]c2=O)CC1` are -2% and 0.43.
The like results for `O=C1N(CCN2C(=O)C3(OCCO3)c3ccccc32)c2ccccc2C12OCCO2` were, in that order, 1% and -0.11.
Turning to `COCCOCC(=O)NCc1ccc(N(C)C)c(C)c1`, the “% Inhibition” value is 5% and the Z score is on record as -0.85.
In the same order, the values of `CC(C)c1ccc(C(=O)N(C)CC(C)(CO)CO)cn1` are -6% and 0.55.
In the same order, the values of `COCCN1CCC[C@@]2(CCN(Cc3cnn(-c4ccc(Cl)cc4)c3)C2)C1` are -9% and 1.21.
In the same order, the values of `O=C1CC2(CCN(c3nnnn3-c3ccccc3)CC2)CN1Cc1ccccc1` are -4% and 0.66.
In the case of `CCN1C(=O)NC(=O)C12CCN(C(=O)[C@@H](c1cccc(F)c1)N(C)C)CC2`, the “% Inhibition” value is recorded as -4% and the Z score is 0.56.
For the compound `O=C1CCCC[C@H](CNC(=O)c2ccncc2)N1`, the “% Inhibition” value is -3% and the Z score is 0.53.
For the compound `O=C(NCc1ccco1)c1ccc2c(=O)n(-c3cccc(Cl)c3)cnc2c1`, the “% Inhibition” value is on record as -2% and the Z score stood at 0.27.
`CCN(CC)C(=O)c1nc(CNC(=O)c2ccc(C)s2)oc1C`: the “% Inhibition” value is recorded as -4% and the Z score is reported as 0.44.
With `CCN(CC)C(=O)Cc1c(C)nn(C)c1C`, the “% Inhibition” value is -2% and the Z score is given as 0.4.
The like results for `O=C(NCCc1ccccc1)c1ccccc1NC(=O)[C@H]1CC(=O)N(c2ccc(F)cc2)C1` were, in that order, -2% and 0.26.
As to `O=C(Cn1c(-c2cccs2)cc2ccccc21)NC1CCCCC1`, the “% Inhibition” value was -6% and the Z score is 0.91.
In the same order, the values of `C=CCNC(=O)c1ccc(N(C)C[C@H]2CCCOC2)nc1` are -18% and 1.88.
On to `O=C(c1c(F)cccc1F)N1CC(c2nc(-c3ccncc3)no2)C1`, for which the “% Inhibition” value was -8% and the Z score was 1.18.
The like results for `Cc1nc(-c2ccccc2)cc2n[nH]c(=O)n12` were, in that order, 26% and -2.91.
In the same order, the values of `O=C(NCc1cccc(F)c1)c1cccc(C(=O)NCc2cccc(F)c2)n1` are 6% and -0.83.
With `O=C(Nc1sc2c(c1[C@H](O)c1ccccc1)CCCC2)c1cccs1`, the “% Inhibition” value is on record as -3% and the Z score was found to be 0.3.
The like results for `O=S(=O)(NCc1nc2ccccc2o1)N1CCCCC1` were, in that order, 1% and -0.14.
The like results for `O=C(CNC1(c2cccc(Cl)c2)CC1)NCC1CCC1` were, in that order, -10% and 1.74.
In the same order, the values of `O=C(CCc1ccsc1)N1CC[C@H](CN2CCCCC2)C1` are 9% and -1.37.
For the compound `O=C(CN1C(=O)COc2ccc(Cl)cc21)NCCOc1ccccc1`, the “% Inhibition” value came to 3% and the Z score is -0.64.
Turning to `CNC(=O)Cc1csc(NC(=O)c2ccnc(OCC3CC3)c2)n1`, the “% Inhibition” value is given as -16% and the Z score was 3.1.
In the same order, the values of `O=C1CN(C(=O)C[C@H]2CCC3(CCC3)O2)c2cc(F)c(F)cc2N1` are -12% and 1.54.
`COc1ccc(C[C@@H]2C3=C(CCCC3)CCN2C(=O)[C@@H]2CCCN2C(N)=O)cc1`: the “% Inhibition” value was -5% and the Z score came out at 0.83.
`Cc1cnc(NC(=O)CN(CC(C)C)S(C)(=O)=O)s1`: the “% Inhibition” value is on record as -5% and the Z score is listed as 0.87.
On to `C[C@@H](C(=O)Nc1cccc2c1ccn2Cc1ccccc1)n1nnc2ccccc2c1=O`, for which the “% Inhibition” value is given as -3% and the Z score is listed as 0.44.
The like results for `O[C@@H](Cn1cnnc1)c1ccc(OC(F)(F)F)cc1` were, in that order, 8% and -1.18.
In the same order, the values of `COc1cc(-c2nnc(-c3ocnc3C)o2)ccc1OCCC(C)C` are -6% and 0.74.
The like results for `CC(C)(C)n1nc(-c2ccccc2)nc1[C@H](N)CO` were, in that order, -2% and 0.34.
For the compound `CC(C)[C@H](NC(=O)C1=CCCC1)C(C)(C)O`, the “% Inhibition” value is -6% and the Z score is listed as 0.66.
The like results for `O=C(c1cccc(-c2ccc(Cl)cn2)c1)N1CCC(N2CCCC2)CC1` were, in that order, -15% and 1.97.
In the same order, the values of `Cc1cnn(CCC(=O)NC[C@@]23CCC[C@@H]2OCC3)c1` are -7% and 1.35.
In the same order, the values of `CCCNS(=O)(=O)N1CCN(c2cc(C3CC3)n[nH]2)CC1` are 25% and -2.8.
With `CNC(=O)[C@@H]1CC[C@](C)(C(=O)NCc2nc(-c3cnccn3)n[nH]2)C1(C)C`, the “% Inhibition” value is reported as 0% and the Z score is listed as -0.07.
On to `CO[C@@H](C)C(=O)NS(=O)(=O)c1ccc2c(c1)OCCCO2`, for which the “% Inhibition” value is recorded as -15% and the Z score was 2.28.
In the same order, the values of `CC[C@@H](CO)NC(=O)Nc1ccn(-c2ncccc2Cl)n1` are 2% and -0.2.
In the same order, the values of `Cc1cc(C(=O)N2CC[C@H](CN)C2)c2cc(Br)ccc2n1` are -5% and 0.6.
In the same order, the values of `CN1CCC(N(c2ccccc2)S(=O)(=O)c2cc(Cl)cc3c2OCC3)CC1` are -6% and 0.62.
Turning to `CC1(C(=O)N2CCC[C@H](CN3CCOCC3)C2)COC1`, the “% Inhibition” value is given as -15% and the Z score was 1.64.
In the same order, the values of `COc1ccccc1C(=O)N[C@@H]1CN(c2ccncn2)C[C@H]1CO` are -7% and 1.25.
Take `CCN(C(=O)NCC1CCCO1)C(C)CS(=O)(=O)CC` (stereo not drawn): the “% Inhibition” value was -12% and the Z score is 2.24.
In the same order, the values of `O=C1CNC(=O)N1[C@H]1CCN(S(=O)(=O)CCc2ccccc2)C1` are -3% and 0.6.
In the same order, the values of `CC(C)c1nc(NC(=O)c2cnc(Cc3ccccc3)s2)n(C)n1` are -5% and 0.48.
